# According to publication PMC4336329 (PLoS ONE, 2015):
# In all, about 310,000 compounds went through this assay and about 2,200 (0.71%) showed an effect of 50% or more. Effects have a minus sign here. This is one part of the list.
# Molecular target: human ether-à-go-go-related gene (hERG) potassium channel (human, UniProt Q12809)
# Assay: primary screen, population patch clamp on CHO cells stably expressing hERG
# Sequence of human ether-à-go-go-related gene (hERG) potassium channel (Q12809 whole entry, looked up): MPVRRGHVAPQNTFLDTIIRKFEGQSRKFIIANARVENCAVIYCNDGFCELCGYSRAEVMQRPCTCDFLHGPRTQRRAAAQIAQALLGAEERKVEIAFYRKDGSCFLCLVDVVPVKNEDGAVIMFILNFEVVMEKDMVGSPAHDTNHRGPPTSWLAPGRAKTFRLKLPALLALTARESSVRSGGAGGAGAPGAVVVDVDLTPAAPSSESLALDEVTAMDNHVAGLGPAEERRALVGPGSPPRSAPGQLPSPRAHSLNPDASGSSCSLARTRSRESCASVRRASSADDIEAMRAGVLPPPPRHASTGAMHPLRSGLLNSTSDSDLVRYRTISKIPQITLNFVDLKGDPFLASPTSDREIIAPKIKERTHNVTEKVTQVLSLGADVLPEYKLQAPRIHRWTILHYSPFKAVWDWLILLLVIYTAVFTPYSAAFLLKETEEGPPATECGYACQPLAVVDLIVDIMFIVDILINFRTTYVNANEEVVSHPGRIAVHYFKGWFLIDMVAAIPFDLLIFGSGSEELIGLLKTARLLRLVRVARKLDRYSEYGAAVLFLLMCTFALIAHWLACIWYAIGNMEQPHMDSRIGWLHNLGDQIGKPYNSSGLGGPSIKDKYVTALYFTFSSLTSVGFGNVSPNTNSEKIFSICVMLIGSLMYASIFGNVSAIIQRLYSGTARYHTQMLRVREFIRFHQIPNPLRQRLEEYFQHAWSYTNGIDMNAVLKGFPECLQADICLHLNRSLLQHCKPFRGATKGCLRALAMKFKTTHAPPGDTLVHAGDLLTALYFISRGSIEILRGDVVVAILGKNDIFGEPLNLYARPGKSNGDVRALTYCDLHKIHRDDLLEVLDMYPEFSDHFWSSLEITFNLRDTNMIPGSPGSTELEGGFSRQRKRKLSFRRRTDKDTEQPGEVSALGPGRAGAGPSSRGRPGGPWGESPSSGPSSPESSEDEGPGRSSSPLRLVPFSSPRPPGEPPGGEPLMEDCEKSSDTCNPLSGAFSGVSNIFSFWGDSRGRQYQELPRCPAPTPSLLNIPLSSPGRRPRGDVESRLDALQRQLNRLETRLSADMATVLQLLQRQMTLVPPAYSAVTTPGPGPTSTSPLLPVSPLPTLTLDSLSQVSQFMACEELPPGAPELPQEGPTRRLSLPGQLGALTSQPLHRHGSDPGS
row,Structure (SMILES),"hERG current change (%, negative = inhibition) at 1uM [%]"
1,C=CCN1C(=O)C(CC(=O)Nc2ccccc2)S/C1=N/c1nccs1 (centres unmarked),4.41
2,Cc1ccc2c(Cl)cc(Cl)c(OCC(=O)NC3CCS(=O)(=O)C3)c2n1 (centres unmarked),-6.16
3,Clc1ccc(N2CCNCC2)nn1,13.7
4,CCOC(=O)CSc1nnc(CNc2cccc(Cl)c2)n1C,10.7
5,Cc1nnsc1NC(=O)OCc1ccc(C(C)(C)C)cc1,2.12
6,O=C(NC(=S)N1CCCc2ccccc21)c1ccc([N+](=O)[O-])cc1,4.51
7,O=C(CSc1nnc(COc2ccccc2F)n1-c1ccccc1)NCc1ccco1,7.55
8,COc1ccc(NC(=O)CSCC(=O)NCCc2ccccn2)cc1,13.4
9,CC(C)Oc1ccc(/C=C(/NC(=O)c2ccccc2)C(=O)NCCC(=O)O)cc1,11.5
10,COc1ccc(N2CCN(C(=O)CSc3nc4c(c(=O)n(C)c(=O)n4C)n3C(C)C)CC2)cc1,-14.2
11,Cc1ccccc1NC(=O)C1CCCN(c2ncnc3onc(-c4ccc(F)cc4)c23)C1 (centres unmarked),16.3
12,COc1ccc2c(=O)c(-c3ccc(OC)c(OC)c3)coc2c1,-6.6
13,CCOC(=O)c1nc(Nc2cc(C)cc(C)c2)c2ccccc2n1,11.2
14,O=C(Cn1c(NCCO)nc2ccccc21)NCCc1ccccc1,15.2
15,O=C1c2ccccc2C(=O)N1CCCCN(C(=O)c1ccco1)c1ccc(Cl)cc1,-13.3
16,Br.Nc1ncc([N+](=O)[O-])cc1Br,14.3
17,FC(F)(F)c1cccc(-c2ccc(-c3csnn3)o2)c1,9.16
18,COc1ccc(CSc2nnc(C)s2)cc1F,7.9
19,Cc1ccc2nc(NC(=O)CSCc3ccccc3)sc2c1,4.96

row,Structure (SMILES),"hERG current change (%, negative = inhibition) at 1uM [%]"
1,CCNC(=O)NC(=O)CSc1cccc(C(F)(F)F)c1,-0.951
2,CC1S/C(=N/N=C/c2ccco2)N(Cc2ccc(F)cc2)C1=O (centres unmarked),14.7
3,O=C(Nc1nnc(S(=O)(=O)N2CCN(c3ccc(F)cc3)CC2)s1)c1ccccc1,11.5
4,N#Cc1ccccc1NC(=O)CN1CC=C(c2ccccc2)CC1,7.73
5,CCC(C)c1ccc(NC(=O)c2cccs2)cc1 (centres unmarked),1.88
6,O=c1[nH]c(=O)n(CCc2ccc(F)cc2)c(O)c1C=NCCCN1CCOCC1,1.65
7,CCOC(=O)C1=C(C)NC(SCC(=O)Nc2nc(C)cs2)=C(C#N)C1c1cccs1 (centres unmarked),9.33
8,CC1CCCN(CCOc2ccc3ccccc3c2Br)C1.O=C(O)C(=O)O (centres unmarked),-6.04
9,COc1ccc(CCN2C(=O)CC(NNc3ccc([N+](=O)[O-])cc3)C2=O)cc1OC (centres unmarked),-12.9
10,COC(=O)c1ccc(CSc2nc3c(cnn3-c3ccc(C)cc3)c(=O)[nH]2)o1,11.5
11,O=C(C(=O)N1CCN(C(=O)c2ccco2)CC1)c1c[nH]c2ccccc12,6.21
12,C=CCc1cccc(OC)c1OCCOCCn1ccnc1.O=C(O)C(=O)O,3.52
13,COC(=O)c1ccc2nc(Nc3nc4ccc(F)cc4s3)sc2c1,3.46
14,CCOc1ccc(C2NC(=O)C(C#N)=C(S)N2c2ccc(OC)cc2)cc1OC (centres unmarked),3.66
15,CN(CC(=O)Nc1cccc(F)c1)C(=O)C1CSC2(C)CCC(=O)N12 (centres unmarked),7.55
16,O=C(C[n+]1ccccc1)N1c2ccccc2Sc2ccccc21.[Cl-],7.16
17,CCc1ccc(NC(=S)N2CCN(C)CC2)cc1,13.8
18,CCSc1nnc(NC(=O)CCn2c(=O)oc3ccccc32)s1,16.4
19,COc1ccccc1CNC(=O)CS(=O)(=O)c1ccccc1,-14.4

row,Structure (SMILES),"hERG current change (%, negative = inhibition) at 1uM [%]"
1,Cc1ccc(S(=O)(=O)N2CCCCC2)cc1NC(=O)COC(=O)Cc1cccc2ccccc12,-6.2
2,CC(C)COC(=O)Cn1cnc2ccc(Br)cc2c1=O,6.01
3,COc1ccc(OC)c(CCNC(=O)CCn2nc(C)c3c(C)n(-c4ccccc4)nc3c2=O)c1,13.8
4,Clc1ccc(OCCCCCN2CCOCC2)cc1,-3.05
5,CCOC(=O)C1(P(=O)(c2ccc(Cl)cc2)c2ccc(Cl)cc2)CCC1,-7.76
6,Cc1ccc(C(CC(=O)N2CCCC2)c2ccccc2)c(O)c1 (centres unmarked),9.48
7,COC(=O)COc1ccc(NS(=O)(=O)c2cccc([N+](=O)[O-])c2)cc1,15.3
8,O=C(COC(=O)C1(c2ccc(F)cc2)CCCC1)NCc1ccco1,5.84
9,CCOc1ccc(CN(C)C(=O)c2cccc(S(=O)(=O)N3CCCC3)c2)cc1OC,7.52
10,COC1=C(OC)c2ccccc2C(C(=O)O)N/C1=C(/C)Nc1ccncc1 (centres unmarked),-0.985
11,O=C(NCCc1c[nH]c2ccccc12)/C(=C\c1cccnc1)NC(=O)c1ccccc1F,-4.23
12,O=C1NC(=O)C(=Cc2ccc(N3CCN(C(=O)c4ccccc4)CC3)c([N+](=O)[O-])c2)C(=O)N1,-20.9
13,O=C(CC1(O)C(=O)Nc2ccccc21)c1ccc2c(c1)OCO2 (centres unmarked),-0.406
14,Cc1c(C(=O)N(C)C2CCCCC2)sc2ncnc(N3CCN(c4ccccc4F)CC3)c12,-0.556
15,CCCN1CCN(CCCNC(=O)c2ccc(NC(=O)C3=C(C)OCCS3)cc2)CC1,10.1
16,Cc1ccc(N(CC(=O)N2CCn3c2nc2ccccc23)S(=O)(=O)c2c(C)n[nH]c2C)cc1,-7.48
17,CCn1cnc2cc(NCc3ccc(Cl)cc3)ccc21,1.06
18,COc1ccc(NS(=O)(=O)c2ccc(-c3coc(C)n3)cc2)cc1OC,18.7
